Source: publication PMC9767466
Results are given in words; binding and its absence hold for the method and conditions named. For some assays here: Binding seen in cells or lysates may run through a third protein. Some binding calls cover weakened binding; strength is not graded here. For some assays here: Where a sequence is shown, tags or fusion partners need not be part of it.

Experiments:
[1] = molecular target: EROS (CYBC1) aa 1-187, yeast two-hybrid fusion (Hybrigenics) (human) (UniProt Q9BQA9); assay: two-hybrid; Hybrigenics; Gal4 DBD bait (pB66) and Gal4 AD prey (pP7), mating, diploid yeast, HIS3 reporter; growth on DO-3 medium (without tryptophan, leucine and histidine); streaks of three independent clones
[2] = molecular target: T1, N-terminal FLAG-tagged EROS in RAW 264.7 macrophages (UniProt Q3TYS2); assay: co-IP; IP of FLAG-EROS (rat anti-FLAG antibody, Protein G magnetic beads) from RAW264.7 EROS-FLAG macrophage lysate; immunoblot for P2X7
T1 sequence: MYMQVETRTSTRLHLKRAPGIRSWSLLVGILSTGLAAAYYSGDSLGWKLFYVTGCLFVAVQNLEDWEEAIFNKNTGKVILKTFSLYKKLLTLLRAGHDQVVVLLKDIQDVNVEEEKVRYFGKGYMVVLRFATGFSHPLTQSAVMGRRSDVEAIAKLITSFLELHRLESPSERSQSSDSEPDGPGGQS

[3] = molecular target: T2, gp91phox (CYBB) aa 1-570, yeast two-hybrid fusion (Hybrigenics) (human), P04839; assay: two-hybrid; Hybrigenics; Gal4 DBD bait (pB66) and Gal4 AD prey (pP7), mating, diploid yeast, HIS3 reporter; growth on DO-3 medium (without tryptophan, leucine and histidine); streaks of three independent clones; conditions: remark: other sources report otherwise
T2 chain: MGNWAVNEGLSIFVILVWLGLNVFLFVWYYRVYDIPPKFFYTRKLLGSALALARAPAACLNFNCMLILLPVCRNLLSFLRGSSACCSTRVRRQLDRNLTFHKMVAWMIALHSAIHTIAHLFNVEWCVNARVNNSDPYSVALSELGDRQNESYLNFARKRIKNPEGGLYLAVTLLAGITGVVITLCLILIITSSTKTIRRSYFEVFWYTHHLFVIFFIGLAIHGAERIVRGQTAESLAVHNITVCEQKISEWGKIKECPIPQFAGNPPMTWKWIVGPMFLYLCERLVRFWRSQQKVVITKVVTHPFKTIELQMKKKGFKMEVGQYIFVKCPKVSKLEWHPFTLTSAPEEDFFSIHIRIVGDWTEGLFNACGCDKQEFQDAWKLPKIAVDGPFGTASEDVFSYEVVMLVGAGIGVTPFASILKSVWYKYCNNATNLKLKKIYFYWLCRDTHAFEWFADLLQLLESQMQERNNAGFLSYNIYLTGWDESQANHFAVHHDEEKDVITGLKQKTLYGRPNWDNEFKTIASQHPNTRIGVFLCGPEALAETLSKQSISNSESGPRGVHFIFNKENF

[4] = molecular target: T3, gp91phox, endogenous in PLB985 cells (human (endogenous in PLB985)) (UniProt P04839); assay: co-IP; IP of endogenous gp91phox (mouse anti-gp91phox antibody, Protein G magnetic beads) from PLB985 lysate; immunoblot for EROS and p22phox
T3 sequence: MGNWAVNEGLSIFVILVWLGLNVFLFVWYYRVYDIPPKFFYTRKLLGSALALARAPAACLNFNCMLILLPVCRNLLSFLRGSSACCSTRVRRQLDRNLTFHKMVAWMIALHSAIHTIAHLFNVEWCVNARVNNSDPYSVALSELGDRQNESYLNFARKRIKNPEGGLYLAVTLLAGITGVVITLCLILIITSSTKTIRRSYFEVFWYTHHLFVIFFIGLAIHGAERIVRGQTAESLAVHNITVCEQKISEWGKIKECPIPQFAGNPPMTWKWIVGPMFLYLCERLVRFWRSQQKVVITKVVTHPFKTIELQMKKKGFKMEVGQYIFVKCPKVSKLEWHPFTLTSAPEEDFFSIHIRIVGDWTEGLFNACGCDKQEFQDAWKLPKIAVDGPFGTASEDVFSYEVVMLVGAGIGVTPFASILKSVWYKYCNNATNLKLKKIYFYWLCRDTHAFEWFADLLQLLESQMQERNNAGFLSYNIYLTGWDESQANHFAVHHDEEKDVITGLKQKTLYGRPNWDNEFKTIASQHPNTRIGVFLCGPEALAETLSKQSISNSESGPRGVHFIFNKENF

[5] = molecular target: T4, gp91phox-GFP (not stated (human or mouse cDNA cloned)) (UniProt Q61093); assay: SEC; Streptactin eluate of EROS from HEK293-F cells run on a Superose 6 column; protein (280 nm) and heme (414 nm) traces; fractions immunoblotted for gp91phox-GFP, EROS-FLAG and p22phox
T4 sequence: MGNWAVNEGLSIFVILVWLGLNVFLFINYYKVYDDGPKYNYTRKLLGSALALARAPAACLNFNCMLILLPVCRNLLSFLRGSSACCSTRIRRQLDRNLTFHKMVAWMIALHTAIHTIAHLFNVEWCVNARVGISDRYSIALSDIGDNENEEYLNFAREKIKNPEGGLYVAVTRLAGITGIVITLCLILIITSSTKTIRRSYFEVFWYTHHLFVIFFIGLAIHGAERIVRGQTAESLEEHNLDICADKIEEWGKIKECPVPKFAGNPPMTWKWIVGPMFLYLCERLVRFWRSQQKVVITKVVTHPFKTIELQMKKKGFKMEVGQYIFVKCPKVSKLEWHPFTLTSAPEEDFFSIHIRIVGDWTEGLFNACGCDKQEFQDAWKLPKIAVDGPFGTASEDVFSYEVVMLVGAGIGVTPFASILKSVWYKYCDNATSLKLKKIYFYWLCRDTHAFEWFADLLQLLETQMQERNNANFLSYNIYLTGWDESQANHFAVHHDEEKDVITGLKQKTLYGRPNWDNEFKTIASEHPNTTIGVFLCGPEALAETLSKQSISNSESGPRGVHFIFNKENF

B1: EROS (CYBC1) aa 1-187, yeast two-hybrid fusion (Hybrigenics) (protein, UniProt Q9BQA9-1 1-187)
chain: MYLQVETRTSSRLHLKRAPGIRSWSLLVGILSIGLAAAYYSGDSLGWKLFYVTGCLFVAVQNLEDWEEAIFDKSTGKVVLKTFSLYKKLLTLFRAGHDQVVVLLHDVRDVSVEEEKVRYFGKGYMVVLRLATGFSHPLTQSAVMGHRSDVEAIAKLITSFLELHCLESPTELSQSSDSEAGDPASQS
[1]
  binding: no binding

B2: P2X7, endogenous in RAW 264.7 macrophages (receptor, UniProt Q9Z1M0 1-595)
chain: MPACCSWNDVLQYETNKVTRIQSTNYGTVKWVLHMIVFSYISFALVSDKLYQRKEPVISSVHTKVKGIAEVTENVTEGGVTKLGHSIFDTADYTFPLQGNSFFVMTNYVKSEGQVQTLCPEYPRRGAQCSSDRRCKKGWMDPQSKGIQTGRCVPYDKTRKTCEVSAWCPTEEEKEAPRPALLRSAENFTVLIKNNIHFPGHNYTTRNILPTMNGSCTFHKTWDPQCSIFRLGDIFQEAGENFTEVAVQGGIMGIEIYWDCNLDSWSHHCRPRYSFRRLDDKNTDESFVPGYNFRYAKYYKENNVEKRTLIKAFGIRFDILVFGTGGKFDIIQLVVYIGSTLSYFGLATVCIDLLINTYSSAFCRSGVYPYCKCCEPCTVNEYYYRKKCESIMEPKPTLKYVSFVDEPHIRMVDQQLLGKSLQVVKGQEVPRPQMDFSDLSRLSLSLHDSPLTPGQSEEIQLLHEEVAPKSGDSPSWCQCGNCLPSRLPEQRRALEELCCRRKPGRCITTSKLFHKLVLSRDTLQLLLLYQDPLLVLGEEATNSRLRHRAYRCYATWRFGSQDMADFAILPSCCRWRIRKEFPKTEGQYSGFKYPY
[2]
  binding: binds

B3: gp91phox (CYBB) aa 1-570, yeast two-hybrid fusion (Hybrigenics), P04839 1-570 (protein)
chain: MGNWAVNEGLSIFVILVWLGLNVFLFVWYYRVYDIPPKFFYTRKLLGSALALARAPAACLNFNCMLILLPVCRNLLSFLRGSSACCSTRVRRQLDRNLTFHKMVAWMIALHSAIHTIAHLFNVEWCVNARVNNSDPYSVALSELGDRQNESYLNFARKRIKNPEGGLYLAVTLLAGITGVVITLCLILIITSSTKTIRRSYFEVFWYTHHLFVIFFIGLAIHGAERIVRGQTAESLAVHNITVCEQKISEWGKIKECPIPQFAGNPPMTWKWIVGPMFLYLCERLVRFWRSQQKVVITKVVTHPFKTIELQMKKKGFKMEVGQYIFVKCPKVSKLEWHPFTLTSAPEEDFFSIHIRIVGDWTEGLFNACGCDKQEFQDAWKLPKIAVDGPFGTASEDVFSYEVVMLVGAGIGVTPFASILKSVWYKYCNNATNLKLKKIYFYWLCRDTHAFEWFADLLQLLESQMQERNNAGFLSYNIYLTGWDESQANHFAVHHDEEKDVITGLKQKTLYGRPNWDNEFKTIASQHPNTRIGVFLCGPEALAETLSKQSISNSESGPRGVHFIFNKENF
[3]
  binding: no binding

B4: p22phox, endogenous in PLB985 cells (protein, UniProt P13498 1-195)
chain: MGQIEWAMWANEQALASGLILITGGIVATAGRFTQWYFGAYSIVAGVFVCLLEYPRGKRKKGSTMERWGQKYMTAVVKLFGPFTRNYYVRAVLHLLLSVPAGFLLATILGTACLAIASGIYLLAAVRGEQWTPIEPKPRERPQIGGTIKQPPSNPPPRPPAEARKKPSEEEAAVAAGGPPGGPQVNPIPVTDEVV
[4]
  binding: binds

B5: p22phox (untagged pEGBacMam-p22phox) (protein, UniProt P13498 1-195)
chain: MGQIEWAMWANEQALASGLILITGGIVATAGRFTQWYFGAYSIVAGVFVCLLEYPRGKRKKGSTMERWGQKYMTAVVKLFGPFTRNYYVRAVLHLLLSVPAGFLLATILGTACLAIASGIYLLAAVRGEQWTPIEPKPRERPQIGGTIKQPPSNPPPRPPAEARKKPSEEEAAVAAGGPPGGPQVNPIPVTDEVV
[5]
  binding: binds
